# Measurements published in PubChem BioAssay (Tox21).
# Values joined by “and” are separate entries in the source; they are usually repeats but may differ in a detail not shown here. Equal entries are not always repeated. The inconclusive results got no clear call from the source; some entries with a clear call stand among them for comparison. For some assays here: A potency beside an inconclusive call is a rough fit, not a confirmed value. Active and inactive are the calls of the source. Calls follow the shape of the dose curve; as a rule, active = well fitted curve in the direction sought with a large enough effect in the repeat runs; inconclusive = weak or mixed curves; inactive = no such curve, though single readings can be large; an effect the other way counts as inactive or inconclusive.
# Assays:
# [1] = Caspase-3/7 induction in HepG2 cells by small molecules, qHTS cell viability counter screen (AID 1346981); also: nearly all actives have a fitted effect of over 30% in size; also: potency is read from the fitted curve at half-maximal effect
# Summary of the method: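 CellTiter-Fluor fluorescence measured viability in the same wells used for Caspase-Glo 3/7. HepG2 (wild type) at 2,000 cells/well were pre-incubated 5 hr, dosed, and given reagent at 16 hr, with 1 hr further at 37C.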
# [2] = target: Nuclear receptor subfamily 1 group I member 2 (Homo sapiens) (UniProt O75469); assay: Human pregnane X receptor (PXR) small molecule agonists, qHTS assay (AID 1346982); also: nearly all actives have a fitted effect of over 35% in size; also: potency is read from the fitted curve at half-maximal effect
# Chain of UniProt O75469 (O75469 whole entry, looked up): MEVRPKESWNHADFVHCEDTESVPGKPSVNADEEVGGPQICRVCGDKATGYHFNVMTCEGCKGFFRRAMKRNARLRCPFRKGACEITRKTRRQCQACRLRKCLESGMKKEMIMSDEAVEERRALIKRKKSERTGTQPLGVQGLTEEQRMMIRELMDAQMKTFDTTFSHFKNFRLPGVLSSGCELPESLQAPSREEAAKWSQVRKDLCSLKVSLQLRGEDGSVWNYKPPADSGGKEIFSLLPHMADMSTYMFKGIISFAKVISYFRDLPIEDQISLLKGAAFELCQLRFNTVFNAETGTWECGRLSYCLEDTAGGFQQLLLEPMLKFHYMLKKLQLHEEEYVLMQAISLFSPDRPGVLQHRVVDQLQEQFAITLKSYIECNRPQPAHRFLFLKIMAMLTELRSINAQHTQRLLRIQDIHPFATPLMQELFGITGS
# Summary of the method: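 Agonist mode: luminescence from ONE-Glo after 24 h compound exposure at 37C in HepG2 cells carrying hPXR-responsive CYP3A4 luciferase, plated in charcoal-stripped serum medium 5 h beforehand.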
# [3] = target: Cytochrome P450 2C9 (Homo sapiens) (UniProt P11712); assay: Cytochrome P450 Family 2 Subfamily C Member 9 (CYP2C9) small molecule antagonists: luciferase reporter qHTS assay (AID 1671198); also: nearly all actives have a fitted effect of over 50% in size; also: potency is read from the fitted curve at half-maximal effect
# Chain of UniProt P11712 (P11712 whole entry, looked up): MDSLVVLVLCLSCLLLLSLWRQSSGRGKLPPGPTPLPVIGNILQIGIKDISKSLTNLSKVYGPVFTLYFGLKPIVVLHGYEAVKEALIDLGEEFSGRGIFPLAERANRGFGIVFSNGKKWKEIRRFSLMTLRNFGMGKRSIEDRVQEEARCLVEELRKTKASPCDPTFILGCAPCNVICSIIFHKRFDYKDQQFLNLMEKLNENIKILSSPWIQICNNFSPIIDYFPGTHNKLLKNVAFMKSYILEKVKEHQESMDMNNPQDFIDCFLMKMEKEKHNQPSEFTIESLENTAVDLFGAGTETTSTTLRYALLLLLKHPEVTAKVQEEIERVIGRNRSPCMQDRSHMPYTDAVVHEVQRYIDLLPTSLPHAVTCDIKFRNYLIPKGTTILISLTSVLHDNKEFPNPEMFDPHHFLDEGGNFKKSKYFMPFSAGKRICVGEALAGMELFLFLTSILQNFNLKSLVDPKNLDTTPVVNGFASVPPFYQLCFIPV
# Summary of the method: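 Enzyme-substrate mix preincubated with compound 10 min at room temperature; reaction started with NADPH regeneration solution, 1 h 37C. Luminescent luciferin product read after 20 min detection reagent.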
# [4] = Caspase-3/7 induction in CHO-K1 cells by small molecules, qHTS cell viability counter screen (AID 1346979); also: potency is read from the fitted curve at half-maximal effect; nearly all actives have a fitted effect of over 35% in size
# Summary of the method: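 Multiplexed with Caspase-Glo 3/7 in CHO-K1 cells, this counter screen added CellTiter-Fluor after 16hr of compound exposure and recorded fluorescence 1hr later.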
# [5] = target: Voltage-gated inwardly rectifying potassium channel KCNH2 (Homo sapiens) (UniProt Q12809); assay: Human Ether-a-go-go-Related Gene (hERG) channel small molecule antagonists: fluorescence cell-based qHTS assay (AID 1671200); also: nearly all actives have a fitted effect of over 50% in size; also: potency is read from the fitted curve at half-maximal effect
# Chain of UniProt Q12809 (Q12809 whole entry, looked up): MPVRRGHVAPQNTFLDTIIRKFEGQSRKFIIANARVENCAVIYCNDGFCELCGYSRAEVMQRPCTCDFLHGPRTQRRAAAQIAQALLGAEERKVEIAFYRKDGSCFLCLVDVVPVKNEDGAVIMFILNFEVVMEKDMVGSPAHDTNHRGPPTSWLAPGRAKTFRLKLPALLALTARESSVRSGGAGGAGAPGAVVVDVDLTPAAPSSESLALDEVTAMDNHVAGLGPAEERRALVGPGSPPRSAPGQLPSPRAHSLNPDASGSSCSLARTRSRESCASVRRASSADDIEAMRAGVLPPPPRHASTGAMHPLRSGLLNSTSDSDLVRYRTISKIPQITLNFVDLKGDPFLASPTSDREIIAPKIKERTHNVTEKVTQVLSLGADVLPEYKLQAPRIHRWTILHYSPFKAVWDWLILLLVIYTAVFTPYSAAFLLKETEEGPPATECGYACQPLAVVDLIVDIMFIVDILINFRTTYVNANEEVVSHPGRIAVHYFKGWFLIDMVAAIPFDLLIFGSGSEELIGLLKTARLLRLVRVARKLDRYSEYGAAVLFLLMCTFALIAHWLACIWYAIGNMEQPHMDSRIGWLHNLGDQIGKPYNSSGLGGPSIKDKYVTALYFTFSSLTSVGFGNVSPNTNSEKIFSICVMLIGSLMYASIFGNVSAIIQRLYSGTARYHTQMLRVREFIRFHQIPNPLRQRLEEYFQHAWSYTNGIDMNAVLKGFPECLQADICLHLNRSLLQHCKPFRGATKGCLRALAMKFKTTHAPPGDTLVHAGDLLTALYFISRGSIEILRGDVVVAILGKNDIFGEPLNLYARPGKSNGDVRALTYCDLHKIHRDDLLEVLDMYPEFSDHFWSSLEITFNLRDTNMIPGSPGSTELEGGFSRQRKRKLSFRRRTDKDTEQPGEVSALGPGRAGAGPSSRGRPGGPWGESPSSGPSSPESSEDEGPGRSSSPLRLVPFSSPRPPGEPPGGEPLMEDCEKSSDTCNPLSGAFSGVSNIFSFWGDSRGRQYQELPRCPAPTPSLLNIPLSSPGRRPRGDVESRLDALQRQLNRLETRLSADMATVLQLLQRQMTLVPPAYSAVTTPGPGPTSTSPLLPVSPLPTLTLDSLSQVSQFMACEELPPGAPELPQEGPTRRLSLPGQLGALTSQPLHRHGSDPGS
# Summary of the method: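 Cell line hERG-U2OS; dye FluxOR II, 1 h RT dark; Tl+ stimulus; ex 480/em 540 nm, read each second for 2 min.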
# [6] = Caspase-3/7 induction in CHO-K1 cells by small molecules, qHTS assay (AID 1346980); also: nearly all actives have a fitted effect of over 15% in size
# Summary of the method: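 Luminescent Caspase-Glo 3/7 read (30min, room temperature) quantified apoptosis induction. Cells were wild-type CHO-K1, treated with compound for 17hr at 37 C and 5% CO2.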
# [7] = target: Cytochrome P450 2D6 (Homo sapiens) (UniProt P10635); assay: Cytochrome P450 Family 2 Subfamily D Member 6 (CYP2D6) small molecule antagonists: luciferase reporter qHTS assay (AID 1671196); also: nearly all actives have a fitted effect of over 50% in size; also: potency is read from the fitted curve at half-maximal effect
# Chain of UniProt P10635 (P10635 whole entry, looked up): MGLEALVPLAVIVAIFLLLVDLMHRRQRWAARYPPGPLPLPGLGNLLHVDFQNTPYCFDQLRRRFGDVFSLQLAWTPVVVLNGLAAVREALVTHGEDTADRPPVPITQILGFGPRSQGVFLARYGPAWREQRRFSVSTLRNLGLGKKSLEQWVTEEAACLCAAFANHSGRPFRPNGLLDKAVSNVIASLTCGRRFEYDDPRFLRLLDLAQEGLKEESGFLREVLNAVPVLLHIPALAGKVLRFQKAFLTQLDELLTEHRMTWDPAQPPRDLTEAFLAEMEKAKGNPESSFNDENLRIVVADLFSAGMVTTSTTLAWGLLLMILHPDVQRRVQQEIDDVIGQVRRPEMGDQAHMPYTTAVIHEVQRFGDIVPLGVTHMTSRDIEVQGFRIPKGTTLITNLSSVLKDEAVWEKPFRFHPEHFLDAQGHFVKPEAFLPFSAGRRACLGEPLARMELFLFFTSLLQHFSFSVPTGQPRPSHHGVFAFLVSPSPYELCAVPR
# Summary of the method: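 CYP2D6 activity was followed as luminescence from its luciferin product after a 1 h NADPH-driven reaction at room temperature. Enzyme-substrate mix and compound were pre-incubated for 10 min, and the signal was read 20 min after adding detection reagent.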
# [8] = target: Cytochrome P450 2C19 (Homo sapiens) (UniProt P33261); assay: Cytochrome P450 Family 2 Subfamily C Member 19 (CYP2C19) small molecule antagonists: luciferase reporter qHTS assay (AID 1671197); also: nearly all actives have a fitted effect of over 65% in size; also: potency is read from the fitted curve at half-maximal effect
# Chain of UniProt P33261 (P33261 whole entry, looked up): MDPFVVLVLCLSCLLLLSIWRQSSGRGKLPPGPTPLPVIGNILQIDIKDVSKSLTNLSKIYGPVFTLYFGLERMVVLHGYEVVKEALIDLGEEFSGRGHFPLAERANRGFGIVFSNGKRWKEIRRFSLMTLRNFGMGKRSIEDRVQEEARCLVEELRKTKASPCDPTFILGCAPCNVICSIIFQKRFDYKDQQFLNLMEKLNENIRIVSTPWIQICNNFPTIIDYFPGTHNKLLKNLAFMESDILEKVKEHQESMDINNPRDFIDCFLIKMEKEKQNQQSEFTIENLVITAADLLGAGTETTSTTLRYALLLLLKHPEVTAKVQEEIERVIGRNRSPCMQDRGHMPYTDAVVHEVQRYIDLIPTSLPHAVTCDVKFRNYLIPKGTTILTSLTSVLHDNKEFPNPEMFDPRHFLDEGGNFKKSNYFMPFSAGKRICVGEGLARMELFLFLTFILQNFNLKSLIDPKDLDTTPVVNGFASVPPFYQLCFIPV
# Summary of the method: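 Compounds were tested on CYP2C19 activity via proluciferin conversion to luciferin. The 37C, 1 h reaction followed NADPH addition; detection reagent stopped it.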
# [9] = target: Cytochrome P450 1A2 (Homo sapiens) (UniProt P05177); assay: Cytochrome P450 Family 1 Subfamily A Member 2 (CYP1A2) small molecule antagonists: luciferase reporter qHTS assay (AID 1671199); also: nearly all actives have a fitted effect of over 50% in size; also: potency is read from the fitted curve at half-maximal effect
# Chain of UniProt P05177 (P05177 whole entry, looked up): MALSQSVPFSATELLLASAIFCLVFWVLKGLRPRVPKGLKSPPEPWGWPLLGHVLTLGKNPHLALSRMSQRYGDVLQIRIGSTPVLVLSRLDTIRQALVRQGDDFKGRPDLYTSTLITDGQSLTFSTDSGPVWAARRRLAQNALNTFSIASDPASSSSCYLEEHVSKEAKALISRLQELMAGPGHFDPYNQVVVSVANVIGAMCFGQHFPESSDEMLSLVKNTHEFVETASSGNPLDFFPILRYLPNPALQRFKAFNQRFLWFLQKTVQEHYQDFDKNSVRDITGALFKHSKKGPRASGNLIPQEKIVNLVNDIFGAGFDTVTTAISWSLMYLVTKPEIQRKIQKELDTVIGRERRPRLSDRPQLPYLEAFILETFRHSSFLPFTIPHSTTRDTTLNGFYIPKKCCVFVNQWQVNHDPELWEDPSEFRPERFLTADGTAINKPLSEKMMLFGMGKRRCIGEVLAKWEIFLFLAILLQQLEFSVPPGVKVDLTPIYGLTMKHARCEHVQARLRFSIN
# Summary of the method: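 Luminescence from luciferin formed by CYP1A2 from a proluciferin substrate, read 20 min after detection reagent. Compound was pre-incubated 10 min with enzyme-substrate, and reaction started with NADPH regeneration solution for 1 h at room temperature; furafylline control.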
# [10] = target: Nuclear receptor subfamily 1 group I member 2 (Homo sapiens) (UniProt O75469); assay: Human pregnane X receptor (PXR) activation by small molecules, qHTS assay (AID 1346985); also: nearly all actives have a fitted effect of over 40% in size
# Summary of the method: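 DPX-2 cells (HepG2 co-transfected with a PXR response element and a CYP3A4-promoter luciferase construct) were seeded at 2,000 per well, rested 5 hr at 37C, then exposed to DMSO-dissolved compounds for 24 hr. Activation was read as luciferase luminescence.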
# [11] = target: Cytochrome P450 3A4 (Homo sapiens) (UniProt P08684); assay: Cytochrome P450 Family 3 Subfamily A Member 4 (CYP3A4) small molecule antagonists: luciferase reporter qHTS assay (AID 1671201); also: nearly all actives have a fitted effect of over 50% in size; also: potency is read from the fitted curve at half-maximal effect
# Chain of UniProt P08684 (P08684 whole entry, looked up): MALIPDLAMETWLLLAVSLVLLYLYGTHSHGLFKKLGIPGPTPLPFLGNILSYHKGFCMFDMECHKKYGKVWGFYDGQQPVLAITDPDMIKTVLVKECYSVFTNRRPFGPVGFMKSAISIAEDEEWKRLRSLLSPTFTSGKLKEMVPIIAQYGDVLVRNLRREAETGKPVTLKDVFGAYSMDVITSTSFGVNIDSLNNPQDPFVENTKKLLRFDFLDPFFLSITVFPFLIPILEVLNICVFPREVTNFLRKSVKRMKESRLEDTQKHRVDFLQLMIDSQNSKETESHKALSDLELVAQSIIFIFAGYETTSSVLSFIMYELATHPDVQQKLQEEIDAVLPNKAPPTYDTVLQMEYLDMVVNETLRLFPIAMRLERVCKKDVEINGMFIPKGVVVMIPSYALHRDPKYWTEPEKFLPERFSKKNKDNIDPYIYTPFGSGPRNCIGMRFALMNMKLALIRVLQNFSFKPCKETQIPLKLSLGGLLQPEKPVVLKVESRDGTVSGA
# Summary of the method: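 Room-temperature assay throughout: 10 min compound–enzyme/substrate preincubation, 1 h reaction after NADPH regeneration solution, 20 min detection. Luciferin formed from proluciferin substrate is quantified by luminescence.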
# Tags tell the direction and shape of the fitted curve.
smiles,measurement,setting,value
Nc1ccc2ccccc2c1S(=O)(=O)O,Potency,[1],"inconclusive: 69.9 µM [cytotoxic, single point]"
same,Potency,[2],active: 62.3 µM
same,Potency,[3],"inconclusive: 10.2 µM [inhibitor, full curve]"
O=[N+]([O-])c1cc[n+]([O-])cc1,Potency,[1],"inconclusive: 68.6 µM [cytotoxic, single point]"
Nc1ccc(N)c2c1C(=O)c1ccccc1C2=O,Potency,[4],active: 24.3 µM
same,Potency,[5],inactive
CC(=O)Nc1nnc(S(N)(=O)=O)s1,Potency,[6],inactive
same,Potency,[2],inactive
same,Potency,[7],inactive
same,Potency,[8],"inconclusive: 64 µM [inhibitor, partial curve, poor fit]"
same,Potency,[9],inactive and inconclusive: 63.3 µM [inhibitor]
CC(C)C(=O)C(C)C,Potency,[6],inactive
same,Potency,[7],"inconclusive: 89.4 µM [inhibitor, partial curve, poor fit]"
same,Potency,[9],inactive
same,Potency,[5],inactive
C=C(C)C1CC=C(C)C(O)C1 (configuration not stated),Potency,[6],inactive
same,Potency,[3],inactive
C=CCOCC(O)CO (configuration not stated),Potency,[6],inactive
same,Potency,[5],inactive
NC(=O)C1CO1 (configuration not stated),Potency,[1],inactive
same,Potency,[8],inactive
O=S(=O)(O)CCN1CCN(CCO)CC1,Potency,[1],inactive
same,Potency,[7],"inconclusive: 69.8 µM [inhibitor, partial curve, poor fit]"
CC(C)=CCC/C(C)=C/C(=O)O,Potency,[1],"inconclusive: 15.4 µM [rising, partial curve, poor fit]"
same,Potency,[3],"inconclusive: 63.3 µM [inhibitor, partial curve]"
O=C1c2ccccc2C(=O)C1c1ccc2cc(S(=O)(=O)O)cc(S(=O)(=O)O)c2n1,Potency,[1],active: 33.1 µM
same,Potency,[8],inconclusive: 86.1 µM [inhibitor]
same,Potency,[3],inconclusive: 86.1 µM [inhibitor]
CCO[Si](CCC#N)(OCC)OCC,Potency,[1],"inactive and inconclusive: 24.3 µM [cytotoxic, partial curve, poor fit]"
same,Potency,[7],inactive
same,Potency,[3],inactive
CC(CCO)CC(C)(C)C (configuration not stated),Potency,[1],inactive
same,Potency,[3],"inconclusive: 65.1 µM [inhibitor, partial curve, poor fit] and inconclusive: 79.6 µM [inhibitor, partial curve, poor fit]"
same,Potency,[9],inconclusive: 46.1 µM [inhibitor] and inactive
COc1ccc(C(=O)Nc2nc3ccccc3c(NCc3ccccc3)c2C#N)cc1,Potency,[1],"inconclusive: 27.3 µM [cytotoxic, partial curve]"
same,Potency,[3],active: 2 µM
same,Potency,[5],"inconclusive: 21.9 µM [inhibitor, partial curve]"
C=CC(=O)OCCC(=O)O,Potency,[1],"inconclusive: 63.2 µM [cytotoxic, partial curve, poor fit]"
same,Potency,[3],"inconclusive: 130 µM [inhibitor, partial curve, poor fit]"
same,Potency,[9],"inconclusive: 82.3 µM [inhibitor, partial curve, poor fit] and inconclusive: 50.2 µM [inhibitor, partial curve, poor fit]"
NC(N)=NS(=O)(=O)c1ccc(N)cc1,Potency,[1],inactive
same,Potency,[10],inactive
same,Potency,[3],inactive
same,Potency,[11],inactive
O=C(NS(=O)(=O)/C=C/c1cccs1)c1ccc(F)cc1Br,Potency,[1],"inconclusive: 24.3 µM [cytotoxic, single point]"
same,Potency,[8],"inconclusive: 79.6 µM [inhibitor, single point]"
CCCCCC1C(=O)CCC1CC(=O)OC (configuration not stated),Potency,[1],"inconclusive: 19.3 µM [rising, partial curve]"
same,Potency,[8],active: 993 nM and active: 3.56 µM
Brc1ccc(Oc2ccc(Br)cc2)cc1,Potency,[1],"inconclusive: 27.3 µM [rising, single point]"
same,Potency,[7],inactive
same,Potency,[3],"inconclusive: 31.7 µM [inhibitor, partial curve]"
same,Potency,[9],active: 22.5 µM and active: 20 µM
same,Potency,[5],"inconclusive: 19.5 µM [inhibitor] and inconclusive: 21.9 µM [inhibitor, partial curve]"
CC(=O)CC(=O)Nc1ccc(C)cc1C,Potency,[1],inactive
same,Potency,[8],"inconclusive: 71 µM [inhibitor, single point]"
same,Potency,[11],inconclusive: 35.6 µM [inhibitor]
C1CCC2OC2C1 (configuration not stated),Potency,[1],inactive
same,Potency,[9],"inconclusive: 66.9 µM [inhibitor, partial curve]"
CC/C=C\CCOC(C)OCC (configuration not stated),Potency,[1],"inconclusive: 8.91 µM [rising, partial curve, poor fit]"
same,Potency,[7],inactive
same,Potency,[9],inconclusive: 32.7 µM [inhibitor]
same,Potency,[11],inactive
